# Assay results reported in PMC4336329 (PLoS ONE, 2015).
# The whole screen tested about 310,000 compounds, of which about 2,200 (0.71%) showed an effect of 50% or more. Effects have a minus sign here. Some of the results follow.
# Target: human ether-à-go-go-related gene (hERG) potassium channel (human, UniProt Q12809)
# Experiment: primary screen, population patch clamp on CHO cells stably expressing hERG
# Sequence of human ether-à-go-go-related gene (hERG) potassium channel (Q12809 whole entry, looked up): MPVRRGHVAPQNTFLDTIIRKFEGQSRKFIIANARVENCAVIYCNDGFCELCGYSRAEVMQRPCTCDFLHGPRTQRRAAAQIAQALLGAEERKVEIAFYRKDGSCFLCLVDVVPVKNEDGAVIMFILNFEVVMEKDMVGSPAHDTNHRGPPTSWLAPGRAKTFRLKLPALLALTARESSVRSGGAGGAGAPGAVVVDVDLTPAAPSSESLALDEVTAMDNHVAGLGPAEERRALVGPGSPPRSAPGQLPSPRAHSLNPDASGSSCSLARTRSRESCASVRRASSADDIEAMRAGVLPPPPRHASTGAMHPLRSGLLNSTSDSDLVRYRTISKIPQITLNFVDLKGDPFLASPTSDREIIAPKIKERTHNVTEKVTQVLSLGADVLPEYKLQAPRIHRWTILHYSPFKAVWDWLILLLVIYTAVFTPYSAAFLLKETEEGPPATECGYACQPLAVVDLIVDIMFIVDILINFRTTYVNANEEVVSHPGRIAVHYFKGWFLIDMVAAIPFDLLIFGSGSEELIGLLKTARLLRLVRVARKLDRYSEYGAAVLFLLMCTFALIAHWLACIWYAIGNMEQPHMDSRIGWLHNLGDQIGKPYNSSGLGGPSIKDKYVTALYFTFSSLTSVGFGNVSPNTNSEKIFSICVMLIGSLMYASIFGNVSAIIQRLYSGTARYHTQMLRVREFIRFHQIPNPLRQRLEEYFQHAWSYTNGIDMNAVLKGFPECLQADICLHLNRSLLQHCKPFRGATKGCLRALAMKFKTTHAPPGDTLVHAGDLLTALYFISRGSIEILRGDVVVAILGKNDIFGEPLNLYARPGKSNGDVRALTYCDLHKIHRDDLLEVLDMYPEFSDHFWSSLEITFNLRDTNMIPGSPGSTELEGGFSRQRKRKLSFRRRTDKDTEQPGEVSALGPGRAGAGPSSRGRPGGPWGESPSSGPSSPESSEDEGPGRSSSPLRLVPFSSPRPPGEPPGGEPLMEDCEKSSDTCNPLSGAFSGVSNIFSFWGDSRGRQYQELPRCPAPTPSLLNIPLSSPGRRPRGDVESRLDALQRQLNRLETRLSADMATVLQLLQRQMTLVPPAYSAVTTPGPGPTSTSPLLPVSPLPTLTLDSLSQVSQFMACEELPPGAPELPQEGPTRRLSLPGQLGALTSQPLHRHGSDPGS
row,SMILES,"hERG current change (%, negative = inhibition) at 1uM"
1,CCOC(=O)CSc1ccc(S(=O)(=O)N(CC)CC)cc1[N+](=O)[O-],1.42%
2,O=C(Cc1ccccc1)Nc1ncccc1Cl,11%
3,O=C(CN(C(=O)c1csnn1)c1cccc(Cl)c1)NC1CCCC1,2.99%
4,CCOc1ccc(NC(=O)CCC(=O)NNS(=O)(=O)c2ccccc2[N+](=O)[O-])cc1,8.59%
5,COc1ccc2c(C)nc(Nc3nc(-c4ccccc4)cc(=O)[nH]3)nc2c1,5.49%
6,Cc1ccc(-n2ncc3c(=O)n(CC(=O)NC4CCCC4)cnc32)cc1C,16.2%
7,Cc1ccc2cc(CCNC(=O)C(=O)c3c(C)[nH]c4ccccc34)c(=O)[nH]c2c1,-0.597%
8,CC(C)(C)CC(C)(C)NC(=S)Nc1ccc(S(=O)(=O)N2CCOCC2)cc1,2.38%
9,N#Cc1nc(-c2cccs2)oc1N1CCN(Cc2ccccc2)CC1,9.11%
10,COc1ccc(NC(=O)CC2C(=O)N(c3cccc(C)c3)C(=O)N2C2CCCCC2)cc1 (stereo not drawn),-4.48%
11,O=C(Cc1ccc(Cl)cc1)NCCc1cnc[nH]1,15.2%
12,COC(=O)C1=CN(Cc2ccc(OC)c(OC)c2)C=C(C(=O)OC)C1c1ccc(O)cc1,13.8%
13,CC(C)N(CCCNC(=O)c1nn(C)c2c1CS(=O)(=O)c1ccccc1-2)Cc1ccccc1,-0.191%
14,CCn1nnc2cc(C(=O)Nc3cc(OC)cc(OC)c3)ccc21,19.3%
15,Cc1ccccc1NC(=O)CN(c1ccc(F)cc1)S(C)(=O)=O,9.26%
16,CC(=O)N(CC(=O)Nc1nn(-c2ccccc2)nc1C(N)=O)Cc1ccccc1,7.29%
17,CC(C)CC(NC(=O)C1CCC(C)CC1)C(=O)Nc1cccnc1 (stereo not drawn),11.8%
18,Cc1cc(C)nc(NC(=O)c2ccc(Cl)c(Cl)c2)n1,-3.31%
19,COc1ccc(N2CCN(CCNC(=O)CCNS(=O)(=O)c3cccs3)CC2)cc1,8.95%
20,Cc1cc(C)c(CN2CCC(CO)(CCOc3ccccc3)CC2)cc1C,-0.659%
21,COc1ccc(CN(Cc2cc3ccc(C)cc3[nH]c2=O)Cc2nnnn2C2CCCC2)cc1,13.2%
22,CCN1C(=O)CS/C1=N\S(=O)(=O)c1ccccc1,-1.91%
23,COc1cc(Cl)c(C)cc1NC(=O)COC(=O)C1=COCCO1,18.3%
24,O=C(Nc1ccccc1)c1cccc(N2C(=O)C3C4C=CC(C5CC45)C3C2=O)c1 (stereo not drawn),-1.99%
